# Experimental data: the supplement of paper PMC12645437, “Orthogonal IMiD-Degron Pairs Induce Selective Protein Degradation in Cells” (ACS Chemical Biology, 2025)
# The list shows a part of the results.
# Target: no compound (DMSO)
# Assay: log2 fold change of degron read counts, EGFP-low vs EGFP+ sorted cells; higher = lower degron-EGFP level without compound (poor expression or instability)
# Conditions: compound: DMSO control; 18 h
# 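Further: jurkat cells carrying a lentiviral library of mutant zinc finger degrons fused to EGFP plus mCherry, mCherry+ cells FACS sorted, degron abundance counted by next-generation sequencing.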
row,Sequence,log2 fold change of degron read counts
1,FSCPICGAEFTQKGNLLRHIKL,-0.802
2,FACNICGANFTQKGNLLRHIKL,-0.934
3,LDCNQCGFYCTQKGNLLRHIKL,1.18
4,FGCPVCGAVFTQKGNLLRHIKL,0.0833
5,FLCNQCGASFTQKGNLLRHIKL,-1.09
6,LCCNQCGFQCTQKGNLLRHIKL,-0.259
7,FDCNQCGHMFTQKGNLLRHIKL,0.661
8,FMCNQCGAMFTQKGNLLRHIKL,-0.182
9,LHCPICGFTCTQKGNLLRHIKL,0.474
10,FECNQCGHKFTQKGNLLRHIKL,-3.29
11,LCCEICGFVCTQKGNLLRHIKL,-0.105
12,FLCNQCGRNFTQKGNLLRHIKL,-0.135
13,FECPICGHRFTQKGNLLRHIKL,-0.729
14,FHCNICGAHFTQKGNLLRHIKL,-0.298
15,FICPICGRLFTQKGNLLRHIKL,0.601
16,FACEICGHYFTQKGNLLRHIKL,-1.33
17,FRCPICGHEFTQKGNLLRHIKL,-0.226
18,FNCEVCGAHFTQKGNLLRHIKL,-1.13
19,FECNICGAIFTQKGNLLRHIKL,-1.66
20,FQCDQCGALFTQKGNLLRHIKL,-1.66
21,FCCEICGAWFTQKGNLLRHIKL,-0.686
22,FNCEICGHCFTQKGNLLRHIKL,-0.88
23,FHCNQCGHEFTQKGNLLRHIKL,-1.25
24,FACNVCGAQFTQKGNLLRHIKL,-1.52
25,FDCNQCGRGFTQKGNLLRHIKL,0.621

row,Sequence,log2 fold change of degron read counts
1,FMCPICGAIFTQKGNLLRHIKL,0.653
2,FMCNQCGHQFTQKGNLLRHIKL,-0.324
3,LNCNQCGFWCTQKGNLLRHIKL,2.12
4,FDCPICGATFTQKGNLLRHIKL,-0.991
5,FACNQCGREFTQKGNLLRHIKL,-1.97
6,FRCNICGANFTQKGNLLRHIKL,0.131
7,FFCEICGALFTQKGNLLRHIKL,0.354
8,FCCEICGAKFTQKGNLLRHIKL,-1.93
9,FFCNVCGATFTQKGNLLRHIKL,-0.209
10,LLCPICGFACTQKGNLLRHIKL,1.02
11,FRCPQCGAGFTQKGNLLRHIKL,-0.578
12,LMCPICGFYCTQKGNLLRHIKL,1.63
13,FCCEQCGAYFTQKGNLLRHIKL,-1.7
14,FNCNQCGANFTQKGNLLRHIKL,-0.713
15,FNCNQCGRVFTQKGNLLRHIKL,0.425
16,FYCEICGHQFTQKGNLLRHIKL,-0.756
17,FDCEVCGASFTQKGNLLRHIKL,-2.46
18,FCCEQCGAVFTQKGNLLRHIKL,-1.52
19,FACSVCGHKFTQKGNLLRHIKL,-1.12
20,LKCEICGFLCTQKGNLLRHIKL,0.0424
21,FCCEVCGAWFTQKGNLLRHIKL,-1.27
22,FWCDICGAPFTQKGNLLRHIKL,0.384
23,FICEICGHVFTQKGNLLRHIKL,-1.98
24,FCCEQCGANFTQKGNLLRHIKL,-3.27
25,FACPICGAFFTQKGNLLRHIKL,0.578
